Results as given in patent publication US20250250343A1 (UNITY BIOTECHNOLOGY, published 2025).

Target: human Tie2 (human, UniProt Q02763 23-1124)
Test: cell-based or functional assay

UniProt Q02763, sequence (Q02763 23-1124): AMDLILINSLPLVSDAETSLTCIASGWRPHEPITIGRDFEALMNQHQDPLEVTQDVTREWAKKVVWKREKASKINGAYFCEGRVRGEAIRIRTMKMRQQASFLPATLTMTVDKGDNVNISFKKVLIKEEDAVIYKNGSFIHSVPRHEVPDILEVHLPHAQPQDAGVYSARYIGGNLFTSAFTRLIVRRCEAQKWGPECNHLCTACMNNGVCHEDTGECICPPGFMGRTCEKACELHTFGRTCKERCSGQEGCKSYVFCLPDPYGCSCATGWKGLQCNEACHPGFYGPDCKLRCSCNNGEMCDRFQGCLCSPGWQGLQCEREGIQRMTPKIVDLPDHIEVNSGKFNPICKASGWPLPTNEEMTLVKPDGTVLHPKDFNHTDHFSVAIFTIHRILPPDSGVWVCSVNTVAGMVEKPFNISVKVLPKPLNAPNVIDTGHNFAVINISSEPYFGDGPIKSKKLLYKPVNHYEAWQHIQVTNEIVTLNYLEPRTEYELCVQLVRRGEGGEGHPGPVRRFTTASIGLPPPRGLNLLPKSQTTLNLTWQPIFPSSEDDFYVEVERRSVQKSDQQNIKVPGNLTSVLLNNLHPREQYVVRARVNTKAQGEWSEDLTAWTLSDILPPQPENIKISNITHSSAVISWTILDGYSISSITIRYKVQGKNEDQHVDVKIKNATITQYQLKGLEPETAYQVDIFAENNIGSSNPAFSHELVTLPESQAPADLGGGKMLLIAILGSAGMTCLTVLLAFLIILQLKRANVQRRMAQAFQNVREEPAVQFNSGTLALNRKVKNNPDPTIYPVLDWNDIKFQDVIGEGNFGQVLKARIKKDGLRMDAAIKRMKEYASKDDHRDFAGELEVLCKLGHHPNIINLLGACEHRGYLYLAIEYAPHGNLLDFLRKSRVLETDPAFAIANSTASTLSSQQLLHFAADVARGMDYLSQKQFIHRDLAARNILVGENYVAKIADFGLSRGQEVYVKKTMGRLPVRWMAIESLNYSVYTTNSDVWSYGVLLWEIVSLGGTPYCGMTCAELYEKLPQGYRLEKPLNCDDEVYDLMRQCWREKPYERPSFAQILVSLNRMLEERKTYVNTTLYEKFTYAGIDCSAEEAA

- EC50, pTie2 in HUVEC (in vitro potency; the sheet's head prints no unit, EC50 in nM per legend paragraph 17): 5.5 nM
B1: #10 (bispecific antibody, human IgG1, kappa, L234A L235A)
heavy chain: DVQLVESGGGVVRPGESLRLSCTASGFTFDSYGMSWVRQAPGKGLEWVSSINVGDNTYYADSVRGRFIISRDSSRNTLYLQMNSLTAEDTAVYYCANWNSFFDYWGLGTLVTVSSASTKGPSVFPLAPSSKSTSGGTAALGCLVKDYFPEPVTVSWNSGALTSGVHTFPAVLQSSGLYSLSSVVTVPSSSLGTQTYICNVNHKPSNTKVDKKVEPKSCDKTHTCPPCPAPEAAGGPSVFLFPPKPKDTLMISRTPEVTCVVVDVSHEDPEVKFNWYVDGVEVHNAKTKPREEQYNSTYRVVSVLTVLHQDWLNGKEYKCKVSNKALGAPIEKTISKAKGQPREPQVYTLPPSREEMTKNQVSLTCLVKGFYPSDIAVEWESNGQPENNYKTTPPVLDSDGSFFLYSKLTVDKSRWQQGNVFSCSVMHEALHNHYTQKSLSLSPGKGGGGSGGGGSDIQLTQSPSSLSASVGDRVTITCSASQDISNYLNWYQQKPGKAPKVLIYFTSSLHSGVPSRFSGSGSGTDFTLTISSLQPEDFATYYCQQYSTVPWTFGQGTKVEIKRTVAAPSVFIFPPSDEQLKSGTASVVCLLNNFYPREAKVQWKVDNALQSGNSQESVTEQDSKDSTYSLSSTLTLSKADYEKHKVYACEVTHQGLSSPVTKSFNRGECGQSSRSSGGGGSSGGGGSEVQLVESGGGLVQPGGSLRLSCAASGYDFTHYGMNWVRQAPGKGLEWVGWINTYTGEPTYAADFKRRFTFSLDTSKSTAYLQMNSLRAEDTAVYYCAKYPYYYGTSHWYFDVWGQGTLVTVSSASTKGPSVFPLAPSSKSTSGGTAALGCLVKDYFPEPVTVSWNSGALTSGVHTFPAVLQSSGLYSLSSVVTVPSSSLGTQTYICNVNHKPSNTKVDKKVEPKSCDKTHL
light chain (kappa): EIVLTQSPGTLSLSPGEIATLSCRASQNVRSDLAWYQQKPGQAPRLLIYDASNRATGIPDRFSGSGSGTDFTLTISSLQSEDFAVYYCQQYSNWPPLTFGGGTKVEIKRTVAAPSVFIFPPSDEQLKSGTASVVCLLNNFYPREAKVQWKVDNALQSGNSQESVTEQDSKDSTYSLSSTLTLSKADYEKHKVYACEVTHQGLSSPVTKSFNRGEC
